T1: RBFOX1 RRM RbFoxmut (Fox-RRM*) (Homo sapiens, UniProt Q9NWB1 109-208, R118D;E147R;N151S;E152T)
T1 sequence: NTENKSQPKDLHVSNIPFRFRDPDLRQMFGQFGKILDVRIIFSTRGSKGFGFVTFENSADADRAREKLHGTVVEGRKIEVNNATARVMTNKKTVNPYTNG

B1: GAAGAUC (DNA:RNA)
RNA: GGGAGACCGGAAUUCAGAUUGUCCGAAGAUCUUAAAUCCCGUCGUAGCCACCA
DNA 1: CAATCTGAATTCCGGTCTCCC
DNA 2: TGGTGGCTACGACGGGATT
B2: GCCGAAG (DNA:RNA)
RNA: B1 RNA with A26C, A27C, U30A, C31G
DNA 1: CAATCTGAATTCCGGTCTCCC
DNA 2: TGGTGGCTACGACGGGATT
B3: CGGUUAU (DNA:RNA)
RNA: GGGAGACCGGAAUUCAGAUUGUCCCGGUUAUUUAAAUCCCGUCGUAGCCACCA
DNA 1: CAATCTGAATTCCGGTCTCCC
DNA 2: TGGTGGCTACGACGGGATT
B4: AAGUGCA (DNA:RNA)
RNA: B3 RNA with C25A, G26A, U29G, A30C, U31A
DNA 1: CAATCTGAATTCCGGTCTCCC
DNA 2: TGGTGGCTACGACGGGATT
B5: AGGAAGC (DNA:RNA)
RNA: B3 RNA with C25A, U28A, U29A, A30G, U31C
DNA 1: CAATCTGAATTCCGGTCTCCC
DNA 2: TGGTGGCTACGACGGGATT
B6: AAGCGUU (DNA:RNA)
RNA: B3 RNA with C25A, G26A, U28C, U29G, A30U
DNA 1: CAATCTGAATTCCGGTCTCCC
DNA 2: TGGTGGCTACGACGGGATT
B7: GUAUAGU (DNA:RNA)
RNA: B1 RNA with A26U, G28U, U30G, C31U
DNA 1: CAATCTGAATTCCGGTCTCCC
DNA 2: TGGTGGCTACGACGGGATT
B8: CAGGCUG (DNA:RNA)
RNA: B1 RNA with G25C, A27G, A29C, C31G
DNA 1: CAATCTGAATTCCGGTCTCCC
DNA 2: TGGTGGCTACGACGGGATT
B9: AAAGGGC (DNA:RNA)
RNA: B1 RNA with G25A, A29G, U30G
DNA 1: CAATCTGAATTCCGGTCTCCC
DNA 2: TGGTGGCTACGACGGGATT

Positions count from the first letter of the chain named. This is one part of the list.

For this assay, the target named is T1, RBFOX1 RRM RbFoxmut (Fox-RRM*). Briefly: EMSA; HiTS-Eq, 1 nM pool, 10 min; buffer printed only for the single-RNA assays: 10 mM Tris pH 7.5, 150 mM NaCl, 3.4 mM EDTA, 0.001% NP-40, 30 C. To be noted: tags: His6 N-terminal (pET28a); label: 5' 32P. In short, it runs like this:
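Purified RbFox RRM (wild type or mutant) was equilibrated for 10 min in 50 µL with 1 nM of a 5′-radiolabelled pool of RNA with 7 randomized nucleotides, its flanks annealed to DNA oligonucleotides, across increasing protein concentrations. Free RNA was separated by 8% native PAGE, excised, reverse-transcribed, PCR-barcoded and sequenced on an Illumina HiSeq 2500. Relative association constants came from read-count changes of each variant against the control reaction, normalised to the cognate motif.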
In general terms: Mobility shift assays separate free from complexed probe on a gel.
On to B1, for which the binding signal was 0.0684 KA relative to UGCAUGU.
Take B2: the binding signal is 0.103 KA relative to UGCAUGU.
Under B3 stands 0.0817 KA relative to UGCAUGU; under B4, 0.157 KA relative to UGCAUGU; under B5, 0.0872 KA relative to UGCAUGU.
Under B6 stands 0.0979 KA relative to UGCAUGU; under B7, 0.15 KA relative to UGCAUGU.
Under B8 stands 0.157 KA relative to UGCAUGU.
As for B9, the binding signal was 0.0621 KA relative to UGCAUGU.

Source of the values: publication PMC9911399, “Two distinct binding modes provide the RNA-binding protein RbFox with extraordinary sequence specificity”.
